Some entries of the source have several records that differ or are many. Only these are listed.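 How the source made its calls: active means a tumour-causing dose and a tumour site recorded for mice in at least one sex group; inconclusive means only government mouse studies exist and were judged inadequate; inactive means mouse studies exist but none gave tumours.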 There may be further records. The values listed for one entry are repeats in other runs, samples, wells, individuals or studies. A tag in brackets gives the origin of a value. Letters hold for one entry only.
Test system: mouse carcinogenicity bioassay, TD50 from CPDB
Assay: DSSTox (CPDBAS) Carcinogenic Potency Database Summary Mouse Bioassay Results
Conditions: TD50_Mouse_Note: no positive results
Description: The Carcinogenic Potency Database (CPDB) is a unique and widely used international resource of the results of over 6500 chronic, long-term animal cancer tests on over 1500 chemical substances. The CPDB provides easy access to the bioassay literature, with qualitative and quantitative analyses of both positive and negative experiments that have been published over the past 50 years in the general literature and by the National Cancer Institute/National Toxicology Program. The CPDB standardizes the diverse literature of cancer bioassays that vary widely in protocol, histopathological examination and nomenclature, and in the published author's choices of what information to provide in their papers. Results are reported in the CPDB for tests in rats, mice, hamsters, dogs, and nonhuman primates, and are based on the most positive result among all experiments for each sex-species. The DSSTox CPDBAS (all species) file incorporates data from the CPDB Summary Tables for the full list of over 1500 chemical substances tested in at least one species. Summary bioassay results for Mouse (TD50, tumor sites, male, female, both sexes) are provided in the CPDB Summary Tables and the DSSTox CPDBAS file for over 1000 chemical substances.
TD50 is a standardized quantitative measure of carcinogenic potency (analogous to an LD50) and is reported in the CPDB Summary Table for each species. […]

Structure (SMILES)	outcome
C#C[C@]1(OC(C)=O)CC[C@H]2[C@@H]3CCC4=C[C@@H](OC(C)=O)CC[C@@H]4[C@H]3CC[C@@]21C	inactive [sample A] and inactive; no positive results [sample B]
CC(=O)O[C@]1(C(C)=O)CC[C@H]2[C@@H]3C=C(Cl)C4=CC(=O)CC[C@]4(C)[C@H]3CC[C@@]21C	inactive [sample A] and inactive; no positive results [sample B]

Reference: PubChem BioAssay AID1199 (EPA DSSTox, 2008)
